In publication PMC4490944 (Journal of immunology (Baltimore, Md. : 1950), 2015):

Target: Soluble extracellular domains of recombinant HLA-DR1 (DRA*0101/DRB1*010101), non peptide-loaded (human)
Test: fluorescence polarisation

k2 (peptide binds active DR1 to give the transient complex MHCpep'): 900 M⁻¹ s⁻¹
k-2 (peptide leaves the transient complex MHCpep'): 0.029 min⁻¹
B1: Alexa488-labeled CLIP peptide (Ac-…) (peptide)
peptide: Ac-VSK(Alexa 488)MRMATPLLMQ

No end group written: not given here. Alexa 488 = Alexa-488 fluorophore (from tetrafluorophenyl ester) on the Lys side-chain amine
